# Test results taken from PubChem BioAssay AID624417 (National Center for Advancing Translational Sciences (NCATS), 2012).
# Where “and” joins values, the source holds several entries; their conditions need not be identical. Equal values may be shown once. About 6,400 (1.6%) of roughly 410,000 compounds were called active. Inconclusive results, whose numbers are uncertain, are shown with a selection of clear calls. Calls come from the whole dose curve; as a rule, active = well fitted inhibition curve with a large enough effect; inconclusive = small, poorly fitted or top-dose-only effect; inactive = no such curve, though single readings can be large or run the other way. Where the call is inconclusive, the potency comes from a doubtful curve fit.
# Biological target: Glucagon-like peptide 1 receptor (Homo sapiens) (UniProt P43220)
# Sequence of UniProt P43220 (P43220 whole entry, looked up): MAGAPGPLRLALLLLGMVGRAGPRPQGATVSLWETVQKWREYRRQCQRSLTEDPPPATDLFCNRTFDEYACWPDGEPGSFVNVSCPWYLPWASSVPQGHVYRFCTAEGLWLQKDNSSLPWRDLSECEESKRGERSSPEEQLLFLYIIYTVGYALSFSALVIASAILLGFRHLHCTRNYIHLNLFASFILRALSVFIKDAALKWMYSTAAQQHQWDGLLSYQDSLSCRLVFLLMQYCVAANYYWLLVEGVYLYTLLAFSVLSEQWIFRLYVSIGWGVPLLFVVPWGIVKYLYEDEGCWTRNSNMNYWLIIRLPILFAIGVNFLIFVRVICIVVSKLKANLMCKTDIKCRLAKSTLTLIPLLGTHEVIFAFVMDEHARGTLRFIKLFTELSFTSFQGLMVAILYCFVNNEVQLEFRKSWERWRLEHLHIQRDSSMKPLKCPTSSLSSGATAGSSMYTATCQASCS
# Experiment: qHTS of GLP-1 Receptor Inverse Agonists (Inhibition Mode); note: nearly all actives have a fitted effect of over 55% in size
# Conditions: HEK293 GLP-1R CRE-luciferase, luminescence, 24 h, GLP-1R form is constitutively active; activity change, negative = inhibition: at 38.3 µM (top of the series) unless noted
# Outline: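 Readout was luciferase luminescence, measured 12 min after detection reagent at room temperature. Beforehand, GLP-1R reporter HEK293 cells had sat 12 h, then received compounds for 24 hr at 37 deg C.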
# % is set by controls: 0 for no effect and ±100 for the full control effect; potency is the fitted concentration of half-maximal effect; tags give direction and shape of the fitted curve.
SMILES,Potency,"activity change, negative = inhibition"
CC(=O)OC(COc1ccccc1)Cn1cnc2cc(C)c(C)cc21 (stereo unspecified),inactive,–
Cc1ccc(C)c(NC(=O)CSc2ncc3c(n2)-c2ccc(Cl)cc2N(C)S3(=O)=O)c1,–,inactive: 2.06%
COC(=O)c1ccccc1NC(=O)N[C@@H](C)C(=O)OC,–,inactive: 6.7%
COC(=O)C1=C(C)N(c2ccc(C)cc2)/C(=C/c2cccs2)C1=O,"inconclusive: 22.4 µM [inhibitor, partial curve, poor fit]",–
O=C(CCC(=O)N1CCN(S(=O)(=O)c2ccc3ccccc3c2)CC1)Nc1cc(Cl)cc(Cl)c1,"inconclusive: 5.01 µM [inhibitor, full curve, poor fit]",–
COc1ccc(-c2noc(CCC(=O)N3CCN(c4ccccc4Br)CC3)n2)cc1,"inconclusive: 15.8 µM [inhibitor, single point]",–
CCOC(=O)c1c(C)[nH]c(CCC(=O)NCCCN2CCN(c3cc(C)ccc3C)CC2)c1C,"inconclusive: 22.4 µM [inhibitor, single point]",–
CCCn1c(NC(=O)C2CCN(S(=O)(=O)c3cccs3)CC2)nc2ccccc21,"inconclusive: 28.2 µM [inhibitor, single point]",–
COc1ccccc1NC(=O)NCCCN1CCN(c2cccc(Cl)c2)CC1,"inconclusive: 12.6 µM [inhibitor, partial curve, poor fit]",–
CN(c1ccccc1)S(=O)(=O)c1cccc(NC(=O)CCNC(=O)c2ccccc2)c1,–,inactive: -28.6%
Cc1oc(-c2ccccc2Cl)nc1CS(=O)CC(=O)N1CCN(c2ccccc2)CC1 (stereo unspecified),"inconclusive: 5.62 µM [inhibitor, partial curve]",–
CCCCC#Cc1cncc(C(=O)N/N=C/c2ccccc2)c1,"inconclusive: 11.2 µM [inhibitor, single point]",–
CC1CC1C(=O)Nc1nc(-c2ccccc2)cs1 (stereo unspecified),"inconclusive: 28.2 µM [inhibitor, single point]",–
CCn1c(Cc2cccn2C)nnc1SCC(=O)c1ccc(C)cc1,"inconclusive: 28.2 µM [inhibitor, single point]",–
Cc1ccnc(N2CCCC(C(=O)Nc3ccc(C)c(C)c3)C2)n1 (stereo unspecified),"inconclusive: 1.78 µM [inhibitor, partial curve, poor fit]",–
COc1ccc(C2NC(c3ccc(OC)cc3)C([N+](=O)[O-])C(C)(C)C2[N+](=O)[O-])cc1 (stereo unspecified),"inconclusive: 14.1 µM [inhibitor, partial curve, poor fit]",–
COc1ccc(C2c3[nH]c4ccccc4c3CCN2Cc2cccn2-c2ncccn2)cc1C (stereo unspecified),"inconclusive: 8.91 µM [inhibitor, partial curve, poor fit]",–
CC1=CC(C)C2C(=O)N(O)C(=O)C2C1 (stereo unspecified),–,inactive: 4.27%
CC(C)c1ccc(NC(=O)C(c2ccccc2)N2CC(=O)Nc3ccccc32)cc1 (stereo unspecified),"inconclusive: 1 µM [inhibitor, full curve]",–
COc1ccc(NC(=O)c2ccc(OC(F)F)cc2)cc1Cl,"inconclusive: 11.2 µM [inhibitor, single point]",–
CCc1ccc(NC(=O)CSc2nc(-c3ccccc3)c(C#N)c(=O)[nH]2)cc1,–,inactive: 13.6%

SMILES,Potency,"activity change, negative = inhibition"
CCOc1ccc(NC(=O)c2cc(S(=O)(=O)NC3CCCC3)ccc2F)cc1,"inconclusive: 11.2 µM [inhibitor, partial curve]",–
Cc1cccc(C)c1-c1ccc(CN2C(CC(C)C)C(=O)N(Cc3cn(CCO)nn3)CCS2(=O)=O)cc1 (stereo unspecified),"inconclusive: 28.2 µM [inhibitor, single point]",–
C[C@@H]1C=CC(=O)O[C@@H]1c1ccc(Cl)cc1,"inconclusive: 3.98 µM [inhibitor, full curve, poor fit]",–
COc1ccc(C=C(c2nc3ccccc3s2)c2nc3ccccc3s2)cc1O,"inconclusive: 2 µM [inhibitor, full curve, poor fit]",–
COc1ccccc1NC(=S)N(CCCN(C)C)Cc1cc2cc3c(cc2[nH]c1=O)OCO3,"inconclusive: 12.6 µM [inhibitor, partial curve, poor fit]",–
O=C(CNC(=S)N(Cc1ccccc1F)C1CCCCC1)NCC1CCCO1 (stereo unspecified),"inconclusive: 5.62 µM [inhibitor, partial curve, poor fit]",–
CN(C)CCNC(=O)c1cccc(-c2cnc3c(NC=O)cc(-c4cccc(F)c4)cn23)c1,"inconclusive: 11.2 µM [inhibitor, single point]",–
Cc1nn(Cc2ccccc2Cl)c(C)c1C(=O)NCC(c1cccs1)N1CCOCC1 (stereo unspecified),"inconclusive: 7.08 µM [inhibitor, partial curve, poor fit]",–
CSc1ccccc1NC(=O)CN(C)CC(=O)Nc1cccc(Br)c1,"inconclusive: 15.8 µM [inhibitor, single point]",–
O=C(C1CC(c2ccc(F)cc2)=NO1)N1CCN(Cc2ccccc2)CC1 (stereo unspecified),"inconclusive: 10 µM [inhibitor, partial curve, poor fit]",–
COc1ccc(OCc2cc(C(=O)N3CCCCCC3)no2)c(Cl)c1,"inconclusive: 28.2 µM [inhibitor, single point]",–
COc1ccc(C=O)cc1COc1c(F)c(F)cc(F)c1F,"inconclusive: 28.2 µM [inhibitor, single point]",–
CCCCOC(=O)CCn1c(=S)oc2ccccc21,"inconclusive: 28.2 µM [inhibitor, single point]",–
O=C(NCCN1CCCCCC1)c1ccc(CS(=O)(=O)c2ccc(Br)cc2)o1,"inconclusive: 12.6 µM [inhibitor, single point]",–
CC(C)N(C(=O)[C@H]1C[C@H](CC(=O)NCCC2=CCCCC2)C(=O)N2CCc3c([nH]c4cc(-c5ccco5)ccc34)[C@]12C)C(C)C,"inconclusive: 14.1 µM [inhibitor, single point]",–
Cc1ccc(S(=O)(=O)Nc2ccc3c(c2)CCC3)cc1,"inconclusive: 20 µM [inhibitor, single point]",–
COCCCN=C1NN=C(c2cc(C)n(-c3ccccc3F)c2C)CS1,"inconclusive: 3.16 µM [inhibitor, partial curve, poor fit]",–
Cc1cc(C)c(C)c(S(=O)(=O)NCC(=O)N2CCCC2)c1C,–,inactive: 0%
O=C(CN1CCN(Cc2ccccc2)CC1)Nc1ccc2c(c1)CCC2,"inconclusive: 28.2 µM [inhibitor, single point]",–
CCCn1c(=O)sc2cc(NC(=O)c3ccccc3OCC)ccc21,–,inactive: 8.86%
COc1ccccc1N=Nc1ccc(N)c(C)c1,–,inconclusive: -56.5% [inhibitor]

SMILES,Potency,"activity change, negative = inhibition"
COc1ccc(CC(=O)Nc2ccc(C)c(S(=O)(=O)N3CCCCCC3)c2)cc1,"inconclusive: 28.2 µM [inhibitor, single point]",–
NC(=O)CC(NC(=O)c1ccc(Br)cc1)c1ccc(NC2CCCCCCC2)c([N+](=O)[O-])c1 (stereo unspecified),"inconclusive: 10 µM [inhibitor, partial curve, poor fit]",–
O=S(=O)(NC(=NC1CCCCC1)c1ccccc1F)c1ccccc1,–,inactive: -11.2%
COc1cc(Cl)ccc1OC1(C)CCN(Cc2ccc(SC)cc2)C1 (stereo unspecified),–,inactive: -17.4%
Cc1cccc2sc(N(CCN(C)C)C(=O)C3CCN(S(=O)(=O)c4cccs4)CC3)nc12,"inconclusive: 7.94 µM [inhibitor, partial curve, poor fit]",–
O=C(c1ccc(CSc2ccccc2)cc1)N1CCCCCC1,"inconclusive: 28.2 µM [inhibitor, single point]",–
O=C(Cc1cccc(NC(=O)C2CCCN(C(=O)C3CCC3)C2)c1)Nc1cccc(C(=O)N2CCCC2)c1 (stereo unspecified),–,inactive: 24.7%
Cc1cccc(-c2nc(SCC(=O)Nc3cccc(C(F)(F)F)c3)n3[nH]c(=O)cc3n2)c1,"inconclusive: 22.4 µM [inhibitor, single point]",–
COc1ccccc1N1CCN(/N=C/c2c(C)nn(-c3ccccc3)c2C)CC1,"inconclusive: 12.6 µM [inhibitor, single point]",–
COc1ccc(C2(c3ccc(OC)cc3)NC(=O)N(CC(=O)Nc3cc(C)on3)C2=O)cc1,–,inactive: -19%
O=C(/C=C\c1ccco1)Nc1nc(-c2ccc3ccccc3c2)cs1,"inconclusive: 28.2 µM [inhibitor, single point]",–
Cc1nn(Cc2ccc(Cl)cc2)c(C)c1NC(=O)c1noc2c1CCc1ccccc1-2,"inconclusive: 15.8 µM [inhibitor, partial curve, poor fit] and inconclusive: 3.98 µM [inhibitor, full curve, poor fit]",–
COc1cccc(CN(C)CC(O)COC(c2ccccc2)c2ccccc2C)c1 (stereo unspecified),"inconclusive: 7.08 µM [inhibitor, partial curve, poor fit]",–
COc1ccc(CCc2cc(OC)c(OC)c(OC)c2)cc1,"inconclusive: 1.58 µM [inhibitor, full curve, poor fit]",–
CC1(C(=O)NS(=O)(=O)c2ccc(Cl)s2)CCN1C(=O)Cc1ccc(-c2ccccc2)cc1 (stereo unspecified),"inconclusive: 31.6 µM [inhibitor, single point]",–
CCCCCNC(=O)Cn1c(=O)c2c(ncn2CC(C)C)n(Cc2ccccc2)c1=O,"inconclusive: 12.6 µM [inhibitor, partial curve, poor fit]",–
O=C(CCN1CCN(c2ccccc2)CC1)N/N=C/c1ccccc1O,"inconclusive: 28.2 µM [inhibitor, single point]",–
COc1cc(Nc2c3ccccc3nc3ccccc23)cc(OC)c1OC,"inconclusive: 28.2 µM [inhibitor, single point]",–
O=C(CSc1nccn1Cc1ccco1)Nc1ccccc1F,"inconclusive: 10 µM [inhibitor, single point]",–
